# The whole screen tested about 16,000 compounds, of which about 120 (0.75%) were called active. About 4% were inconclusive and are not listed. Calls follow the shape of the dose curve; as a rule, active = well fitted inhibition curve with a large enough effect; inconclusive = small, poorly fitted or top-dose-only effect; inactive = no such curve, though single readings can be large or run the other way. The list shows a part of the results.
# Target: Rap guanine nucleotide exchange factor 3 (Homo sapiens) (UniProt O95398)
# Experiment: Validation qHTS for antagonist of cAMP-regulated guanine nucleotide exchange factor 3 (EPAC1); also: nearly all actives have a fitted effect of over 75% in size;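 as to activity change, negative = inhibition: plate controls were DMSO for no effect and ATA control for full effect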
# Details: EPAC1 Rap1B-BODIPY-GDP exchange, fluorescence; series mostly up to 150 µM; activity change, negative = inhibition: at the top concentration
# Summary of the method: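 Nucleotide exchange followed as fluorescence loss when BODIPY-GDP leaves Rap1B (480 nm excitation, 540 nm emission), read at 5 min intervals over 30 min. Reaction: 100 nM EPAC1, 250 nM RAP1B-BODIPY-GDP, 50 uM GDP; ATA and DMSO define normalization.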
# Potency is read from the fitted curve at half-maximal effect.
# Sequence of UniProt O95398 (O95398 whole entry, looked up): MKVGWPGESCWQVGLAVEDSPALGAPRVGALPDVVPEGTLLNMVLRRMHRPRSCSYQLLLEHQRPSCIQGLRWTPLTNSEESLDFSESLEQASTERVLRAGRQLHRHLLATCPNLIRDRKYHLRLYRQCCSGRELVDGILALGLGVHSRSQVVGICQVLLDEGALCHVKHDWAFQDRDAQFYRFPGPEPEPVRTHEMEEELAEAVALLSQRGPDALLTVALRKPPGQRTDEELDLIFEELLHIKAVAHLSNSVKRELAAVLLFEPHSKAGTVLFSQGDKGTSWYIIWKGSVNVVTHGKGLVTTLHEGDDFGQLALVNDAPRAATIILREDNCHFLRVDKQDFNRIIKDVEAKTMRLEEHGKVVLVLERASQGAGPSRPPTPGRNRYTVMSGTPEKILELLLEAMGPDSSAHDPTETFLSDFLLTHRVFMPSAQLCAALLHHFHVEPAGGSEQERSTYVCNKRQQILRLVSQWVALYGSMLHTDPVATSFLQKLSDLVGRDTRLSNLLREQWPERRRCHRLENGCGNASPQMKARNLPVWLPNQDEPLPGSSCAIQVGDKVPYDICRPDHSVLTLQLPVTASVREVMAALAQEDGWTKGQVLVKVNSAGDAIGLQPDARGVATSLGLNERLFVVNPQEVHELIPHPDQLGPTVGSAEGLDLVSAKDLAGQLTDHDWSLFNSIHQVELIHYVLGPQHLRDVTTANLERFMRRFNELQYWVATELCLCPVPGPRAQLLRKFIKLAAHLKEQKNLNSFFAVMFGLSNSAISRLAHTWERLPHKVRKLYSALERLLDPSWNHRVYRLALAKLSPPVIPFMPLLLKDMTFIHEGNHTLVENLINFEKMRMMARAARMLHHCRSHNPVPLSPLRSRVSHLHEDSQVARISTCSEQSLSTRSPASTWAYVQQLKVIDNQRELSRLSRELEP
Structure (SMILES),"activity change, negative = inhibition",Potency
CC[n+]1c(/C=C/C=C2/N(C)c3ccccc3C2(C)C)sc2ccccc21,inactive: 2.32% [at 75.8 µM],–
CC#CCC(C)[C@H](O)/C=C/[C@@H]1[C@H]2c3cccc(CCCC(=O)O)c3O[C@H]2C[C@H]1O (stereo partly specified),inactive: 7.01%,–
CNC1C(O)[C@@H]2OC(O[C@@H]3C(O)C(O)C(N)C[C@H]3N)C(N)C[C@H]2O[C@H]1O[C@@H]1OC(CO)C(N)C(O)C1O (stereo partly specified),inactive: 3.82%,–
c1coc(-c2ccccc2CN2CCOc3ccc(CN4CCOCC4)cc3C2)c1,inactive: 8.82%,–
Cc1c(C(=O)N2CCCC2)sc2ncnc(NCCc3ccccn3)c12,inactive: 10.3%,–
O=C1CCN(Cc2cccn2-c2ccccn2)CCN1Cc1ccccc1C(F)(F)F,inactive: 4.28%,–
CNc1ncnc2c1ncn2[C@H]1C[C@H](O)[C@@H](CO)O1,inactive: 21.3%,–
COc1ccc2[nH]cc(CCNC(=O)C3CC3)c2c1,inactive: 17.4%,–
C=C[C@@H]1c2cc(C)ccc2N(S(=O)(=O)c2ccc(C)cc2)[C@H](c2ccc(OC(C)=O)cc2)C1(C#N)C#N,inactive: -5.13%,–
COC(=O)CCCC[C@@H]1SC[C@@H]2NC(=O)N[C@@H]21,inactive: -10.4%,–
COc1cc(OC)c(OC)cc1/C=c1\[nH]c(=O)/c(=C/c2cc(OC)c(OC)cc2OC)[nH]c1=O,inactive: 8.84%,–
Cc1ccc(N(CC2=NCCN2)c2cccc(O)c2)cc1,inactive,–
O=C(NCC1Cc2cccc(-c3nccs3)c2O1)c1ccnc(Cl)c1 (stereo unspecified),inactive: 3.32%,–
O=c1c(-c2cc(F)cc(F)c2)nc2cnc(N3CCOCC3)nc2n1Cc1cccs1,inactive: 8.61%,–
N[C@H](CCCP(=O)(O)O)C(=O)O,inactive,–
C#CC(N)CCC(=O)O (stereo unspecified),inactive: -7.07% [at 75.8 µM],–
CO[C@H]1C[C@H](O[C@H]2[C@H](C)O[C@@H](O[C@@H]3/C(C)=C/C[C@@H]4C[C@@H](C[C@]5(C=C[C@H](C)[C@@H](C6CCCCC6)O5)O4)OC(=O)[C@@H]4C=C(C)[C@@H](O)[C@H]5OC/C(=C\C=C\[C@@H]3C)[C@]54O)C[C@@H]2OC)O[C@@H](C)[C@@H]1O,inactive: -8.89%,–
O=c1c(-c2ccc(O)cc2)coc2c(C3OC(CO)C(O)C(O)C3O)c(O)ccc12 (stereo unspecified),inactive: 2.26%,–
O=S(=O)(O)c1cc(N=C=S)ccc1/C=C/c1ccc(N=C=S)cc1S(=O)(=O)O,–,active: 35.5 µM
COc1ccc(CN2[C@@H](CC(C)=O)c3ccc(/C=C/C(C)=O)cc3S2(=O)=O)cc1,inactive: 1.11%,–
CN(C)c1ccc(-c2nc(Nc3ccncc3)c3ccccc3n2)cc1,inactive: 0.782%,–
CCNc1ncc2nc(-c3cccc(C#N)c3)c(=O)n(C)c2n1,inactive: 13.6%,–
COc1cc2nc(C#Cc3nc4cc(OC)c(OC)cc4[nH]3)[nH]c2cc1OC,inactive: 20.6%,–

Structure (SMILES),"activity change, negative = inhibition",Potency
CN(C)c1ccc(/C=c2\[nH]c(=O)/c(=C\c3ccc(N(C)C)cc3)[nH]c2=O)cc1,inactive: 6.23%,–
CC(C)C[C@@H](N)C(=O)O,inactive: 19.9%,–
O=C(Nc1ccc(Cl)cc1)Nc1ccc(Cl)c(Cl)c1,inactive: -10.1%,–
OCCNCCCOc1cccc(Cl)c1Cl,inactive: -1.75%,–
Cn1c(=O)c(-c2ccc(Cl)cc2)nc2cnc(Oc3ccccc3)nc21,inactive: -5.32%,–
CCNc1ncc2nc(CCc3ccccc3)c(=O)n(CCC#N)c2n1,inactive: 14.7%,–
O=C(Nc1cccc(F)c1)N1CC2(CCN(C(=O)c3ccncc3)CC2)C1,inactive: 17.4%,–
O=C1c2c(O)cccc2Cc2cccc(O)c21,inactive,–
COc1ccc2[nH]c(=O)c3c(c2c1)OC(C)(C)C=C3,inactive,–
Cc1noc(C)c1-c1nc(NC2CC2)c2ccccc2n1,inactive: 14.8%,–
COc1nccc(-c2c(-c3ccc(F)cc3)ncn2C2CCC(O)CC2)n1 (stereo unspecified),inactive: -14.2%,–
COCCCCC(=NOCCN)c1ccc(C(F)(F)F)cc1,inactive,–
c1ncc(-c2ccoc2)c(NC2CC2)n1,inactive: 11.2%,–
CCNc1ncc2nc(-c3ccc(Cl)cc3)c(=O)n(Cc3cccc(OC)c3)c2n1,inactive: -10.2%,–
COc1ccccc1C(=O)N[C@@H]1c2ccccc2C2(CCN(Cc3ccc4c(c3)OCO4)CC2)[C@H]1O,inactive: 15.6%,–
CC(=O)[C@]1(O)CCC2C3CC(C)C4=CC(=O)C=CC4(C)[C@@]3(F)C(O)C[C@]21C (stereo partly specified),inactive: 19.3%,–
CS(=O)(=O)N1CCC2(CC1)CN(c1ccc(-c3ccccc3)cc1)C2,inactive: 13.7%,–
CCC1CN(CCNC(=O)c2cscn2)Cc2cc(OC)ccc2O1 (stereo unspecified),inactive: -6.31%,–
C(=Nc1cnc2ccccc2c1)c1ccc2ccccc2n1,inactive: 4.41%,–
CC[N+](C)(CC)CCOC(=O)C(O)(c1ccccc1)C1CCCCC1 (stereo unspecified),inactive: 22.3%,–
CC1(C)CC(C(=O)N2CCOc3ccc(CN4CCN(Cc5ccccn5)CC4)cc3C2)CCO1 (stereo unspecified),inactive: 3.69%,–
CC(C)(CNC(=O)c1cnn(-c2nccc(-c3ccccc3F)n2)c1C1CC1)N1CCOCC1,inactive: 10.3%,–
COc1cccc(Cn2c(=O)c(-c3cccs3)nc3cnc(N4CCN(C)CC4)nc32)c1,inactive: 29.4%,–

# Reference: PubChem BioAssay AID1645882 (National Center for Advancing Translational Sciences (NCATS), 2021)
